Experiment: soluble fraction after stress (log2 fold change); higher = more stays soluble; pooled small domains, quantitative proteomics
Settings: stress: pH 4
Summary of the method: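 Aggregation propensity is read out as the fold change in how much of each domain remains soluble after acid stress. The custom small-domain libraries were pooled, held at pH 4 and analysed with high-throughput quantitative proteomics. On the log2 scale used, higher values mean more of the domain stayed soluble.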

| Sequence | soluble fraction (log2) |
| --- | --- |
| HMEVITIENEDAFTEGRAFAHSEGILVGISSGAALKAATILAERPENKGKTIVALLPDSGDRYLSTALFA | -1.11 |
| HMGGKYKPLILWHLIEGTKRFSALQRLLPQATPRMLTMNLRELESDGLVHRKVYPEVPPKTEYSLSDLGK | -0.225 |

— the domain aggregation screens of Martell et al. (2025)
